Results as given in PubChem BioAssay AID2675 (National Center for Advancing Translational Sciences (NCATS), 2010).
About 100 (0.036%) of roughly 280,000 compounds were called active. Inconclusive results, whose numbers are uncertain, are shown with a selection of clear calls. Calls come from the whole dose curve; as a rule, active = well fitted inhibition curve with a large enough effect in the signal ratio, with a control signal flat (not every such curve was filed as active); inconclusive = small, poorly fitted or top-dose-only effect, or effect the other way, or a change in a side signal; inactive = no such curve, though single readings can be large or run the other way; the % refers to the signal ratio. Potencies beside an inconclusive call are fits to weak or partial responses and may not hold up. “Side channel” marks fits to a control or component signal instead of the main read-out.

target: Muscleblind-like protein 1 (Homo sapiens) (UniProt Q9NR56); experiment: qHTS Assay for Inhibitors of MBNL1-poly(CUG) RNA binding; details: TR-FRET MBNL1-His/biotin-(CUG)12 binding, 665/545 ratio; activity change, negative = inhibition: at 57.5 µM (top of the series)
In short: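 His-tagged MBNL1 binding to biotinylated (CUG)12 RNA was measured by TR-FRET using terbium anti-His antibody (0.055 ng/ul final) and streptavidin-XL665 (5 nM final). Compounds were titrated 92 nM to 58 uM; 60 min at room temperature.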
% is set by controls: 0 for no effect and ±100 for the full control effect; potency is the fitted concentration of half-maximal effect; tags give direction and shape of the fitted curve or compound fluorescence and quenching.

Chain of UniProt Q9NR56 (Q9NR56 whole entry, looked up): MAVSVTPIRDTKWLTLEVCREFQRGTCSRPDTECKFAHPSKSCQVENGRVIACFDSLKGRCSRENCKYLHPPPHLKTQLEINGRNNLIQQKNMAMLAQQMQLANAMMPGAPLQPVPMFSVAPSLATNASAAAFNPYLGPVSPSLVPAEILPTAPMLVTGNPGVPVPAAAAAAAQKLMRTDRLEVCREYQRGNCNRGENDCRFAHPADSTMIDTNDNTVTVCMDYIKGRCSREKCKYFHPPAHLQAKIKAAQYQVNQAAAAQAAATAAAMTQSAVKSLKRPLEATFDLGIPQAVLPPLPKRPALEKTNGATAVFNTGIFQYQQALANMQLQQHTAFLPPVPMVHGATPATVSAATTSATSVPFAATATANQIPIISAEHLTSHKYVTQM

Row | SMILES | activity change, negative = inhibition | Potency
1 | COC(=O)Nc1nnc(/C=C/c2ccc(OC)cc2)s1 | inactive: 19.8% | –
2 | COC(=O)c1sc(NC(=S)NC(=O)c2cccc(Br)c2)nc1C | inactive: 15% | –
3 | Cc1ccc(N2CCN(C(=O)c3cc(C(=O)c4ccccc4C)c[nH]3)CC2)c(C)c1 | inactive: -1.56% | –
4 | CCN1CCc2c(C#N)c(N3CCCCC3)nc(NCc3ccccc3)c2C1 | inactive: 18% | –
5 | CC(=NC1CCCC1)c1c(C)[nH]n(-c2nc3ccccc3s2)c1=O | inactive: -13.2% | –
6 | c1ccc(CC2CCN(C3=Nc4cccc5cccc3c45)CC2)cc1 | – | inconclusive: 25.1 µM [quencher, side channel, partial curve]
7 | COc1cc(CNc2ccc(O)cc2)cc(Br)c1OCc1ccccc1 | – | inconclusive: 12.6 µM [quencher, side channel, partial curve]
8 | Cc1cc(C)nc(SC2CC(=O)N(c3ccc(Cl)cc3)C2=O)n1 (stereo not given) | – | inconclusive: 8.91 µM [quencher, side channel, single point]
9 | COc1ccc(C(=O)Nc2nc(C)c3cc4c(cc3n2)OCO4)cc1 | – | inconclusive: 39.8 µM [fluorescent, single point]
10 | COC(=O)c1c(NC(C)=O)sc(C(=O)Nc2ccccc2)c1C | – | inconclusive: 31.6 µM [fluorescent, side channel, single point]
11 | COc1cccc(NC(=O)Nc2ccc(Cc3ccncc3)cc2)c1 | – | inconclusive: 11.2 µM [fluorescent, side channel, partial curve]
12 | CCN(CC)CCCN1C=C2C(=O)C(C)(OC(=O)C3CCCC3)C(=O)C=C2C=C1c1ccsc1 (stereo not given) | – | inconclusive: 25.1 µM [quencher, side channel, partial curve]
13 | O=C(CCS(=O)(=O)c1ccc2c(c1)NC(=O)CO2)NCCc1ccccc1 | inactive: -4.19% | –
14 | O=C(Cn1c(=O)sc2ccccc21)NCc1ccccn1 | inactive: 2.73% | –
15 | CCOc1ccccc1OCC(=O)Nc1nnc(C)s1 | – | inconclusive: 39.8 µM [quencher, side channel, single point]
16 | COc1cc(/C=N/N2C(=O)c3ccccc3NC2(C)c2cccc([N+](=O)[O-])c2)cc(Br)c1O (stereo not given) | – | inconclusive: 28.2 µM [quencher, side channel, partial curve]
17 | Cc1cc(C)n(S(=O)(=O)c2ccccc2[N+](=O)[O-])n1 | – | inconclusive: 28.2 µM [quencher, single point]
18 | Cn1c(-c2c(N)n(CCCc3ccccc3)c3nc4ccccc4nc23)nc2ccccc21 | inactive: 24.9% | –
19 | COc1ccc(CCC(C)NCC(C)c2ccccc2)cc1 (stereo not given) | – | inconclusive: 15.8 µM [quencher, side channel, partial curve]
20 | O=C(Nc1cccnc1)Nc1cccc([N+](=O)[O-])c1 | – | inconclusive: 25.1 µM [quencher, side channel, partial curve]

Row | SMILES | activity change, negative = inhibition | Potency
21 | CCOc1ccc(/C(O)=C2\C(=O)C(=O)N(CCOCCO)C2c2ccccc2OC)cc1 (stereo not given) | – | inconclusive: 28.2 µM [quencher, side channel, single point]
22 | COc1ccc(N2CCN(C(=O)c3ccccc3F)CC2)c([N+](=O)[O-])c1 | – | inconclusive: 20 µM [quencher, partial curve]
23 | CCS(=O)(=O)Nc1cccc(-c2ccc3nnc(C)n3n2)c1 | – | inconclusive: 15.8 µM [quencher, side channel, partial curve]
24 | CCNC(=O)Nc1cc(OC)c(OC)cc1C(=O)O | inactive: 3.69% | –
25 | CC(C)C[C@@H]1NC(=O)[C@H](CO)NC(=O)c2cc([N+](=O)[O-])cc(I)c2OCC[C@@H](C(N)=O)NC1=O | – | inconclusive: 39.8 µM [quencher, side channel, single point]
26 | CC1CCN(S(=O)(=O)c2cn(C)c(=O)n(C)c2=O)CC1 | – | inconclusive: 0.141 µM [quencher, side channel, full curve, poor fit]
27 | O=C(C1CCN(S(=O)(=O)c2ccccc2)CC1)N1CCc2ccccc21 | – | inconclusive: 39.8 µM [quencher, single point]
28 | O=C(c1ccccc1[N+](=O)[O-])N1CCc2ccccc2C1 | – | inconclusive: 17.8 µM [quencher, side channel, partial curve]
29 | FC(F)(F)c1cc(-c2ccc(Cl)cc2)nc2ncnn12 | – | inconclusive: 15.8 µM [quencher, partial curve]
30 | c1ccc(C(c2ccccc2)N2CCN(c3nc4ccccc4n4cnnc34)CC2)cc1 | inactive: 3.58% | –
31 | CS(=O)(=O)N(CC(=O)NCc1ccco1)c1cccc([N+](=O)[O-])c1 | – | inconclusive: 12.6 µM [quencher, side channel, partial curve]
32 | CC1=C([N+](=O)[O-])C(c2ccc3c(c2)OCO3)N(C)C(=O)N1C (stereo not given) | – | inconclusive: 28.2 µM [quencher, side channel, single point]
33 | CCOc1c(C(N)=O)cc([N+](=O)[O-])cc1[N+](=O)[O-] | – | inconclusive: 11.2 µM [quencher, side channel, partial curve]
34 | COc1ccc(-n2c(CN3CCOCC3)nc3ccc([N+](=O)[O-])cc3c2=O)c(OC)c1 | – | inconclusive: 10 µM [quencher, side channel, partial curve]
35 | COc1cccc(CN2C(=O)c3cccc(N)c3C2=O)c1 | – | inconclusive: 39.8 µM [quencher, side channel, single point]
36 | CC(=O)C1=C(O)C(=O)N(c2ccc(C(=O)O)cc2)C1c1ccccc1 (stereo not given) | – | inconclusive: 12.6 µM [quencher, side channel, partial curve]
37 | Cc1ccc2nsnc2c1S(=O)(=O)NCc1cccnc1 | – | inconclusive: 12.6 µM [quencher, partial curve]
38 | N#CC(C#N)=Cc1cccn1-c1ccc(C(=O)O)cc1 | inactive: 12% | –
39 | O=C(NCc1ccccc1)c1cc[n+](Cc2ccccc2)cc1 | – | inconclusive: 14.1 µM [quencher, partial curve]
40 | CC(Sc1nc2cc(Cl)ccc2s1)C(=O)Nc1cccc(S(=O)(=O)N2CCOCC2)c1 (stereo not given) | – | inconclusive: 5.01 µM [quencher, side channel, single point]
